# About 2,200 (0.71%) of roughly 310,000 compounds showed an effect of 50% or more. Effects have a minus sign here. This is one part of the list.
# Target: human ether-à-go-go-related gene (hERG) potassium channel (human, UniProt Q12809)
# Test: primary screen, population patch clamp on CHO cells stably expressing hERG
# Chain of human ether-à-go-go-related gene (hERG) potassium channel (Q12809 whole entry, looked up): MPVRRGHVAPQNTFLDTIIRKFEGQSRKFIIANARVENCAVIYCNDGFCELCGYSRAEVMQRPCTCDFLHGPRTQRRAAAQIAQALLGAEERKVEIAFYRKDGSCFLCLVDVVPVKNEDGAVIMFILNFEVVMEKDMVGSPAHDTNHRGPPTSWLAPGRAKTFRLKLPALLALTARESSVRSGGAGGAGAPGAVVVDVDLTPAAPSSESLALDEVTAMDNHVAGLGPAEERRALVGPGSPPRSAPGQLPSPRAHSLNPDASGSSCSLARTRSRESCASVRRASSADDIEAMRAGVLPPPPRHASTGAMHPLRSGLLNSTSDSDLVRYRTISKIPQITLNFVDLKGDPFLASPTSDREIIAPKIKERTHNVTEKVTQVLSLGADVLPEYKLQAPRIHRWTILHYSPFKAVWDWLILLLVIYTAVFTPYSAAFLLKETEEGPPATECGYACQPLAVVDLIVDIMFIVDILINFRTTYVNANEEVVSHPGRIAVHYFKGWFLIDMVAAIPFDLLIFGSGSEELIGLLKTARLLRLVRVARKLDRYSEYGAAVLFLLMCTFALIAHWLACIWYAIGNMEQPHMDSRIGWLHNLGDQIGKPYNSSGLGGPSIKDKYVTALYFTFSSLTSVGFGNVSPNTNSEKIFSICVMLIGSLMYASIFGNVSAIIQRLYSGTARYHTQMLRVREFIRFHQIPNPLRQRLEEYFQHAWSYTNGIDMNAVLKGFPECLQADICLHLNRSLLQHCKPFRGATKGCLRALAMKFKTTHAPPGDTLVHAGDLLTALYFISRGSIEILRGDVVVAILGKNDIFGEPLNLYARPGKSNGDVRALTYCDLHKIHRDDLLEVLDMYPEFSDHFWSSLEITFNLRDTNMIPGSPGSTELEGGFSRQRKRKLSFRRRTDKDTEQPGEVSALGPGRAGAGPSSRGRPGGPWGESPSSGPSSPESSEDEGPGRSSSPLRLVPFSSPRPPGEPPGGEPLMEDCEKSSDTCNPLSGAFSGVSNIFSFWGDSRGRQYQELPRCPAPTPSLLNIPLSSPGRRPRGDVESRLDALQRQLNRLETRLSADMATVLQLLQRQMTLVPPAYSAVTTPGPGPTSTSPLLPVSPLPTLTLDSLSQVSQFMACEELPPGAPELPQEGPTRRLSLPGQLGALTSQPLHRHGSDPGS
row,Structure (SMILES),"hERG current change (%, negative = inhibition) at 1uM [%]"
1,O=C(NN1CCOCC1)c1ccccc1Br,17.4
2,COCc1nnc(NC(C)=O)s1,12.1
3,CCc1c(C)nc2cc(-c3ccc(OC)cc3)[nH]n2c1=O,-7.83
4,O=C1OCC2=C1C(c1ccc(F)cc1)Sc1ccccc1N2 (stereo not drawn),14.3
5,CCC(C)(C)NC(=O)C(c1ccccc1Cl)N(C(=O)CCC(=O)Nc1cc(C)on1)C1CC1 (stereo not drawn),3.62
6,COc1ccc(/C(=N/O)C(C)(C)NO)cc1.Cl,7.29
7,COc1ccccc1C(=O)NC(=O)COC(=O)C1CC2CCCC(C1)C2=O (stereo not drawn),19.5
8,O=C(N/N=C/c1c(O)n(CCc2ccccc2)c(=O)[nH]c1=O)c1ccncc1,8.41
9,COc1ccc(OCC(O)CN2CCCC2)cc1 (stereo not drawn),12.2
10,O=C(CC1SC(=Nc2ccccc2)N(CCCO)C1=O)Nc1ccc(Cl)cc1 (stereo not drawn),9.9
11,CC(C)Cn1c(N)c(C(=O)COC(=O)c2cccnc2Cl)c(=O)n(C)c1=O,5.47
12,Cc1nc2c(C)cccc2cc1C(=O)N/N=C/c1cccc([N+](=O)[O-])c1,-0.388
13,CC(C)CNC(=O)NC(=O)COC(=O)Cn1cnc2ccccc2c1=O,7.86
14,Nc1nnc(-c2cccc([N+](=O)[O-])c2)o1,13.8
15,CCOC(=O)c1cc(CC)sc1/N=C/c1c(O)ccc2ccccc12,-2.46
16,O=C(CCC(=O)Nc1ccc(Br)cc1)N/N=C/c1ccccc1O,6.54
17,CCOC(=O)CCNC(=O)N1CCCC(C(=O)c2cc(C)c(OC)c(C)c2)C1 (stereo not drawn),8.8
18,CCOC(=O)c1nnn(-c2nonc2N)c1-c1ccc(Br)cc1,10.9
19,CCCCCC(O)CCC(=O)NNC1=CC(=O)CC(C)(C)C1 (stereo not drawn),11.1
20,CCOCC(=O)Nc1c(C(=O)Nc2ccc3c(c2)OCO3)oc2ccccc12,19.4
21,N#Cc1ccc(CN2CCN(C(=O)CC(NC(=O)c3ccccc3)c3ccccc3)CC2)cc1 (stereo not drawn),-84.7
22,Clc1ccccc1CNc1nc2ccccc2n2cnnc12,9.39
23,CC1CCCC(C)N1C(=O)Cn1nnc(-c2ccc([N+](=O)[O-])cc2)n1 (stereo not drawn),4.79

row,Structure (SMILES),"hERG current change (%, negative = inhibition) at 1uM [%]"
1,Cc1oc(S(=O)(=O)N2CCCCC2)cc1NC(=O)Nc1ccccc1,9.14
2,Cc1ccc(NC(=O)CCNS(=O)(=O)c2ccc(OC(F)(F)F)cc2)c(O)c1,2.08
3,O=C(NC1CCCC1)C1CC(c2ccc(F)cc2)=NO1 (stereo not drawn),0.226
4,Cc1cc(C(=O)N/N=C/c2ccccn2)c2ccccc2n1,16
5,Cn1c(O)c(C(=O)c2ccccc2)c(=O)n(C)c1=O,8.22
6,COc1cccc(NCCC(=O)c2cccc([N+](=O)[O-])c2)c1,10.6
7,CNC(=O)/C(C#N)=C/c1ccc(-c2ccc(OC)cc2[N+](=O)[O-])o1,5.38
8,COc1ccc(C(=O)/C=C/Nc2ccc(S(=O)(=O)Nc3onc(C)c3C)cc2)cc1,14.9
9,CCOC(=O)C1CCN(C(=O)CCC(=O)NNc2nc3ccccc3c3nc(C)nn23)CC1,18.9
10,Cc1ccc(N2CC(C(=O)Nc3cccnc3)CC2=O)cc1Cl (stereo not drawn),13.3
11,COC(=O)c1[nH]nc2c1C(=O)N(C1CCCCC1)C2=O,7.96
12,COc1ccc(NC(=O)Nc2cc(C)ccc2OC)cc1,-5.18
13,Fc1ccc(-c2nnn(Cc3nc4ccccc4s3)n2)cc1,0.965
14,Cc1c(Br)c(C(F)(F)F)nn1CC(=O)NCCN1CCOCC1,6.02
15,CN=C(Nc1ccccc1)SC1CC(=O)N(c2cccc(OC)c2)C1=O (stereo not drawn),9.59
16,COc1ccc(N2C(=O)CC(NNC(=O)c3ccco3)C2=O)cc1 (stereo not drawn),-1.86
17,CN(C)c1ccc(P(=O)(OCc2ccccc2)C(O)c2ccccc2)cc1 (stereo not drawn),11.5
18,O=C(Nc1ccccc1NC(=O)c1ccccc1F)c1ccccc1F,14.7
19,Clc1ccc(-c2c[nH]c3ccccc23)nn1,12.9
20,Cc1ccc(NC(=O)CCN2CCC(C)CC2)cc1.Cl,18.3
21,COc1ccccc1N=Nc1[nH]c2ccc(C)cc2c1O,3.92
22,COC(=O)c1sc(N2C(=O)C(O)=C(C(=O)c3ccc(C)o3)C2c2ccco2)nc1C (stereo not drawn),4.2
23,O=P(Nc1cccnc1)(Oc1ccccc1Cl)Oc1ccccc1Cl,6.69

row,Structure (SMILES),"hERG current change (%, negative = inhibition) at 1uM [%]"
1,CC(=O)N=C1SC2CS(=O)(=O)CC2N1c1ccc(-c2nc3ccc(C)cc3s2)cc1 (stereo not drawn),9.01
2,COc1cc(NC(=O)c2ccco2)c(C(=O)OCC(=O)Nc2ncc(Cl)cc2Cl)cc1OC,12.4
3,CCn1nc(NC(=O)c2ccncc2)c2cc3cccc(C)c3nc21,20.3
4,O=C(CSc1nnc(COc2ccccc2Cl)o1)NC(=O)NCc1ccco1,13.9
5,CCc1nn(-c2ccccc2)c(N)c1C#N,9.42
6,COc1cccc(C(=O)Nc2ccc(NC(=O)Cc3ccccc3)cc2)c1,-5.63
7,CCOC(=O)CSc1nc2c(c(=O)[nH]1)C(C)(CC)Cc1ccccc1-2 (stereo not drawn),11
8,CCCc1cc(=O)[nH]c(SCC(=O)Nc2cc3c(cc2C(C)=O)OCO3)n1,8.71
9,COc1ccc(C(=O)N(c2ccccc2)C2C=CS(=O)(=O)C2)cc1 (stereo not drawn),3.52
10,COc1ccccc1NC(=O)c1cc(C)oc1C,1.5
11,CCOC(=O)C1CCN(S(=O)(=O)c2cc3c(cc2C)NC(=O)CO3)CC1,-13.1
12,CCC(=O)NC(Nc1cc(C)cc(C)n1)(C(F)(F)F)C(F)(F)F,17.6
13,CCSc1nnc(NC(=O)c2cc(-c3ccccc3O)n[nH]2)s1,8.75
14,COC(=O)c1ccc(C)c(NC(=O)c2nn(C)c(=O)c3ccccc23)c1,9.77
15,CC1CCc2cc(F)ccc2N1C(=O)C1(C)CC1(Cl)Cl (stereo not drawn),11.3
16,Cc1ccc(S(=O)(=O)N/N=C\c2ccc([N+](=O)[O-])o2)cc1,-6.28
17,Cc1cc(C)n2nc(SCC(=O)N/N=C/c3ccccc3F)nc2n1,9.71
18,CSCC(C)N1CCC(n2nccc2NC(=O)CCCc2ccccc2)CC1 (stereo not drawn),-9.4
19,COc1cc(NC(=O)c2ccccc2NS(=O)(=O)c2ccc(Cl)s2)cc(OC)c1,13.1
20,CC(C)c1nnc(NC(=O)CCC(=O)N2CCN(c3ccccn3)CC2)s1,-2.2
21,O=C(O)CN=C1NC2(CCCC2)Cc2ccccc21,9.36
22,O=C(O)c1cccnc1-c1ncccc1C(=O)O,6.57
23,CC(C)C[C@H](NC(=O)CCn1nnc2ccccc2c1=O)C(=O)O,6.95

row,Structure (SMILES),"hERG current change (%, negative = inhibition) at 1uM [%]"
1,Nc1nc(Nc2cccc3ccccc23)nc(C2CCCC2=O)n1 (stereo not drawn),14.3
2,CCCSc1nc2ccccc2n1CC(=O)O,20.7
3,Cc1nn(CCC(=O)N2CCN(S(=O)(=O)c3ccccc3)CC2)c(C)c1C,14.5
4,CCCCS(=O)(=O)Nc1ccc(C)cn1,8.96
5,Cc1ccc2ncccc2c1[N+](=O)[O-],0.585
6,CCN1C(=O)[C@H]2[C@@H](c3ccc(C)cc3)N3C(=O)N(c4ccc(OC)cc4)C(=O)[C@@]3(Cc3ccccc3)[C@H]2C1=O,12.7
7,COc1cc(C(=O)Nc2cc(S(C)(=O)=O)ccc2Cl)ccc1OCC(=O)N1CCOCC1,5.03
8,CCN(CC)CCNC(=O)c1ccc(NC(=O)c2c(C)nn(-c3ccc(F)cc3)c2Cl)cc1,-40
9,CC(C)N1C(=O)CN(C2CCCCCC2)C(=O)C1c1ccccc1F (stereo not drawn),11.8
10,CCOC(=O)Nc1ccc2c(c1)N(C(=O)CNC)c1ccccc1CC2.Cl,14.7
11,Cc1ccc(OCC(=O)N2CCc3ccccc3C2)c([N+](=O)[O-])n1,2.48
12,Cc1cc(C)c(S(=O)(=O)c2ccccc2C(=O)O)c(C)c1,10.6
13,CC(=O)SC1CC(=O)N(c2c(C)cccc2C)C1=O (stereo not drawn),11.7
14,COC(=O)c1cn(C(=O)c2ccc(Cl)cc2)c2ccccc12,12.5
15,Cc1cc(C)n2nc(C(=O)Nc3ccc(S(=O)(=O)N4CCCCC4)cc3)nc2n1,13.3
16,COc1ccc(-n2nc(C(=O)NCC(=O)N3CCCC3)c3ccccc3c2=O)c(OC)c1,14.8
17,COc1ccc(Cl)cc1N1C(=NC(=O)C2CCCCC2)SC2CS(=O)(=O)CC21 (stereo not drawn),5.28
18,CCn1nc(C(=O)Nc2cccc3ccccc23)c(Cl)c1Cl,17.7
19,CC(Oc1ccc2oc3ccccc3c2c1)C(=O)NC12CC3CC(CC(C3)C1)C2 (stereo not drawn),20.4
20,COc1cnc(-c2ccccn2)nc1Sc1cccc(Cl)c1,16.3
21,O=C(/C(=C/O)N=Nc1ccccc1)c1ccncc1,9.05

# Source: PMC4336329 (PLoS ONE, 2015)
